Measurements reported in PubChem BioAssay AID2147 (National Center for Advancing Translational Sciences (NCATS), 2009).
The campaign covered roughly 230,000 compounds. About 3,600 (1.6%) were called active. This list was built around the results that the source calls inconclusive (neither active nor inactive); the mix of calls is not that of the screen. Calls follow the shape of the dose curve; as a rule, active = well fitted inhibition curve with a large enough effect (not every such curve was filed as active); inconclusive = small, poorly fitted or top-dose-only effect, or another doubt; inactive = no such curve, though single readings can be large or run the other way. Potencies beside an inconclusive call are fits to weak or partial responses and may not hold up.

What follows are compounds tested against Lysine-specific demethylase 4E (Homo sapiens) (UniProt B2RXH2) (assay: qHTS Assay for Inhibitors of Human Jumonji Domain Containing 2E (JMJD2E)). Details: JMJD2E catalytic domain, FDH-coupled NADH fluorescence (FDH is formaldehyde dehydrogenase); series mostly up to 57.1 µM; activity change, negative = inhibition: at the top concentration.
Also: nearly all actives have a fitted effect of over 50% in size.
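For activity change, negative = inhibition in this document: 0% = wells with enzyme and -100% = buffer wells without enzyme.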
Potency is read from the fitted curve at half-maximal effect; tags tell the direction and shape of the fitted curve.

Chain of UniProt B2RXH2 (B2RXH2 whole entry, looked up, the tested form may be a part): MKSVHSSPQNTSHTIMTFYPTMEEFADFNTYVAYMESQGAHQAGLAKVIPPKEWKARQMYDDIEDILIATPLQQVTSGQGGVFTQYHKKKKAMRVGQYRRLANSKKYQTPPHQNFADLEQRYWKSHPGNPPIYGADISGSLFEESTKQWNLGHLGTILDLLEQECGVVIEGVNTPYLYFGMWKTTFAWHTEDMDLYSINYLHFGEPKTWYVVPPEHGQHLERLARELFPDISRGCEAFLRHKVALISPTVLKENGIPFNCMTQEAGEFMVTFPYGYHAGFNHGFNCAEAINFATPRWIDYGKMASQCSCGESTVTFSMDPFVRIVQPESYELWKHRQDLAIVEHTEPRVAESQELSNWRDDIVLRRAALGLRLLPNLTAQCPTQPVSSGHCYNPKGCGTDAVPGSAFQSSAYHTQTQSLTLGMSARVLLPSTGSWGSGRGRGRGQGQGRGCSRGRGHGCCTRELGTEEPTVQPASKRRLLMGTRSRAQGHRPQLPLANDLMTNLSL

Row | Compound | activity change, negative = inhibition | Potency
1 | COc1ccccc1-c1nnc2sc(COc3ccc(Cl)cc3)nn12 | inactive: 1.5% | 
2 | CCOC(=O)C1(Cc2ccc(OC)cc2)CCN(C(=O)CN2CCN(CC)CC2)CC1 | inactive: 2.41% | 
3 | O=C(CCNc1cccc(Cl)c1)c1ccco1 | inactive: 2.05% | 
4 | CC1(C)Oc2ccc3ccc(=O)oc3c2-c2cn[nH]c21 |  | inconclusive: 25.1 µM [inhibitor, single point]
5 | Cn1c2ccc(F)cc2c2ncn(CCN3CCOCC3)c(=O)c21 |  | inconclusive: 22.4 µM [inhibitor, partial curve]
6 | O=C(OCC(=O)N1CCc2ccccc2C1)c1cc(=O)[nH]c2ccccc12 |  | inconclusive: 39.8 µM [inhibitor, single point]
7 | CC1(C)CC(=O)C2=C(C1)NC(=S)C(C#N)C21CCCCC1 (stereo not given) |  | inconclusive: 31.6 µM [inhibitor, single point]
8 | Cc1nn(-c2ccc(F)cc2)c2nc(N)c(C#N)c(-c3cccs3)c12 |  | inconclusive: 28.2 µM [inhibitor, partial curve]
9 | O=C(O)c1cc(=O)c2ccc(Cl)cc2[nH]1 |  | inactive
10 | Cc1ccccc1NC(=S)NNC(=O)c1cccnc1 |  | inconclusive: 35.5 µM [inhibitor, single point]
11 | S=C(Nc1ccccc1)Nc1ccccc1C#Cc1ccccc1 | inactive: -22.4% | 
12 | O=C(O)CN(CC(=O)O)Cc1cc2c(-c3ccccc3C(=O)O)c3cc(CN(CC(=O)O)CC(=O)O)c(=O)cc-3oc2cc1O |  | active: 3.98 µM
13 | C/C=C/C(=O)OCC(=O)Nc1nc2ccc(C)cc2s1 |  | inconclusive: 39.8 µM [inhibitor, single point]
14 | CN(C)S(=O)(=O)c1cccc(NC(=O)COC(=O)c2c[nH]c(=O)[nH]c2=O)c1 |  | inconclusive: 1.12 µM [inhibitor, full curve, poor fit]
15 | CCOc1ccc(-n2c(C)cc(/C=C3/C(=N)N4C(=NC3=O)SN=C4S(C)(=O)=O)c2C)cc1 |  | inconclusive: 35.5 µM [inhibitor, single point]
16 | CC1CCc2c(nc3ncnn3c2NCCc2ccccc2F)C1 (stereo not given) |  | inconclusive: 28.2 µM [inhibitor, single point]
17 | COc1ccc(OC)c(CN2CCC(C(=O)N3CCOCC3)CC2)c1 |  | inconclusive: 28.2 µM [inhibitor, single point]
18 | CCc1ccccc1N1C(=O)c2cccc3c(N4CCOCC4)c([N+](=O)[O-])cc(c23)C1=O | inactive: 2.43% | 
19 | O=C(O)/C=C\C(=O)Nc1ccc(N2CCN(c3cccc(Cl)c3)CC2)cc1 | inactive: -14.9% | 
20 | CSc1nc2nccc(-c3ccc(-c4ccccc4)cc3)n2n1 |  | inconclusive: 31.6 µM [inhibitor, partial curve]
21 | COc1cc(N=Nc2c(O)c3ccccc3[nH]c2=O)c(OC)cc1N=Nc1ccccc1 | inactive: -9.2% | 
22 | N#C/C(=C\c1cccc(O)c1)c1nc2ccccc2o1 |  | inconclusive: 25.1 µM [inhibitor, partial curve]
23 | O=C(CSc1ccccc1C(=O)NCCCN1CCCC1=O)NCc1ccco1 |  | inconclusive: 35.5 µM [inhibitor, single point]

Row | Compound | activity change, negative = inhibition | Potency
24 | Cn1c(N)c(C(=O)COC(=O)c2ccccc2NCc2ccco2)c(=O)n(C)c1=O |  | inconclusive: 28.2 µM [inhibitor, partial curve]
25 | O=C(Nc1ccc(OCC(=O)N2CCOCC2)cc1)Nc1cccc2ccccc12 |  | inconclusive: 28.2 µM [inhibitor, partial curve]
26 | CCOc1ccc(NC(=O)C2CC(=O)N3CCCN=C3S2)cc1 (stereo not given) | inactive: 3.76% | 
27 | CCCCCCCCC(=O)NNC(=O)c1c(O)c2ccccc2n(CC)c1=O |  | inconclusive: 22.4 µM [inhibitor, single point]
28 | COc1ccc(C(=O)Nc2oc(-c3ccccc3)c(-c3ccccc3)c2C#N)cc1 |  | inconclusive: 35.5 µM [inhibitor, single point]
29 | Cc1ccc(C(=O)Cn2c(-c3ccccc3)noc2=O)cc1 | inactive: 6.73% | 
30 | O=C(c1ccccc1Sc1c(Cl)cccc1[N+](=O)[O-])N1CCOCC1 | inactive: -0.429% | 
31 | COC(=O)c1ccc(C(=O)OC)c(NC(=S)N2CC(C)CC(C)C2)c1 (stereo not given) |  | inconclusive: 17.8 µM [inhibitor, partial curve]
32 | CN(CCOc1ccc(CC2SC(=O)NC2=O)cc1)c1ccccn1 (stereo not given) |  | inconclusive: 28.2 µM [inhibitor, partial curve]
33 | NC(=O)c1ccccc1NC(=O)CS(=O)(=O)Cc1ccccc1 |  | inconclusive: 35.5 µM [inhibitor, single point]
34 | COc1ccc(C[C@@H]2c3cc(OC)c(OC)cc3CC[N@+]2(C)CCC(=O)OCCCCCOC(=O)CC[N@@+]2(C)CCc3cc(OC)c(OC)cc3[C@H]2Cc2ccc(OC)c(OC)c2)cc1OC | inactive: 3.06% [at 25.5 µM] | 
35 | O=C1c2oc3ccc(Cl)cc3c(=O)c2C(c2ccccn2)N1CCCN1CCOCC1 (stereo not given) |  | inconclusive: 31.6 µM [inhibitor, single point]
36 | O=C(CSc1nc2c(cnn2-c2ccccc2)c(=O)[nH]1)N1N=C(c2cccs2)CC1c1ccc(F)cc1 (stereo not given) |  | active: 3.98 µM
37 | CCOc1ccc(-n2c(Cc3cc(=O)[nH]c(=O)[nH]3)nnc2SCC(=O)OC)cc1 | inactive: -3.9% | 
38 | CCOC(=O)c1ccc(Cl)c(NC(=O)c2cccnc2)c1 |  | inconclusive: 0.251 µM [inhibitor, full curve]
39 | O=C(O)COc1ccc(-c2nnn(Cc3ccccc3F)n2)cc1 |  | inconclusive: 39.8 µM [inhibitor, single point]
40 | COc1ccc(C(=O)n2nnc3ccccc32)cc1OC | inactive: 1.08% | 
41 | Cc1ccc(-c2nn(CCC#N)cc2C=C(C#N)C#N)cc1 | inactive: -4.1% | 
42 | CCOC(=O)c1sc2nc(N3CCOCC3)c3c(c2c1N)CC(C)(C)N(C)C3 |  | inconclusive: 3.98 µM [inhibitor, full curve]
43 | Cc1cccc(C)c1OC(=O)CSc1nnc(-c2ccccc2O)o1 |  | inconclusive: 28.2 µM [inhibitor, partial curve]
44 | CC(C)c1ccc(/C=C2\SC(N3CCCC3)=NC2=O)cc1 | inactive: -0.483% | 
45 | O=c1c(C=NCc2ccccc2)c(NCc2ccccc2)nc2ccccn12 |  | inconclusive: 35.5 µM [inhibitor, single point]
